Measurements: PubChem BioAssay AID1434 (Sanford-Burnham Center for Chemical Genomics, 2008)
Some of the results follow. Further columns of the screen follow, without active or inactive calls. Most of these compounds were active or inconclusive in the main read-out, so they are no random draw.

biological target: Runt-related transcription factor 1 (Homo sapiens) + Core-binding factor subunit beta (Homo sapiens) (UniProt Q01196+Q13951); test: inhibitors of RUNX1 Runt–CBFb-SMMHC binding, primary screen, biochemical, FRET, Cerulean-Runt, Venus-CBFb-SMMHC, uHTS (AID 1434); conditions: Cerulean-Runt/Venus-CBFb-SMMHC FRET ratio 530/480, 1 h; retest duplicate average; at 20 µM; stronger effect = higher value;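 also: 0% = DMSO wells and 100% = wells with excess untagged CBFb-SMMHC; inhibitors lower the FRET ratio by blocking Runt binding to CBFb-SMMHC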
Chain of UniProt Q01196 (Q01196 whole entry, looked up): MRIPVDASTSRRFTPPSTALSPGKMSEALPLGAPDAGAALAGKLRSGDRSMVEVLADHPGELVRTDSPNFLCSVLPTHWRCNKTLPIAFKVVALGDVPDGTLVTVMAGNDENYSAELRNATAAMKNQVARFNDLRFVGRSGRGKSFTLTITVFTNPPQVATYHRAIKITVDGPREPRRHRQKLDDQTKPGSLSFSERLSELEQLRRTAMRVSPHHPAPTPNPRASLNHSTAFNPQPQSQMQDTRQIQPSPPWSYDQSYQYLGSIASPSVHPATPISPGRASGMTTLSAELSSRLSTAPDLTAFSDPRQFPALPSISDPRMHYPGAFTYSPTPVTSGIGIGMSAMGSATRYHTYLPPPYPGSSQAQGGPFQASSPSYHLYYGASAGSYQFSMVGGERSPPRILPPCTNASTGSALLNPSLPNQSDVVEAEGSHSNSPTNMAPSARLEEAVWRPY
Chain of UniProt Q01196 (Q13951 whole entry, looked up): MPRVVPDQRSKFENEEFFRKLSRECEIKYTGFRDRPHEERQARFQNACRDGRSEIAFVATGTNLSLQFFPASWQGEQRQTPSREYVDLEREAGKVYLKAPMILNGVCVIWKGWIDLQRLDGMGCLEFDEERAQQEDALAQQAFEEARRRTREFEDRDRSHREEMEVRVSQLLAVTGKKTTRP

Row | Structure (SMILES) | inhibition
1 | CCN(CC)c1ccc(/C=N/NC(=O)c2c(Cl)cnn2C)c(O)c1 | 136%
2 | COCCCn1c(CCC(=O)O)ccc1-c1cccs1 | 130%
3 | CCCCn1c(N)c(NCC)c(=O)[nH]c1=O | 84.2%
4 | CCn1cc(C2C(C(=O)Nc3cc(C)ccn3)=C(C)NC3=C2C(=O)CC(C)(C)C3)c(C)n1 (centres undefined) | 68.7%
5 | CN(C)CCCn1c(N)c(C#N)c2nc3ccccc3nc21 | 70.6%
6 | CCN1CCS/C1=C/C=C/C1=[N+](CC)CCS1 | 181%
7 | COC(=O)C1=CNC=C(C(=O)OC)C1c1ccccc1Cl | 148%
8 | COc1ccc(OC)c2c1C(=O)C(Cl)=C(Cl)C2=O | 65.2%
9 | COc1ccc2nc(N3CCC(C)CC3)c(C#N)cc2c1 | 113%
10 | Cc1ccc(S(=O)(=O)NC(C(=O)Oc2cc3oc(=O)cc(C)c3cc2Cl)C(C)C)cc1 (centres undefined) | 76.9%
11 | CC(=O)Oc1ccc2ccc(=O)oc2c1 | 93.7%
12 | COc1cc(C2CC(c3cccnc3)=NN2c2ccc(F)cc2)cc(OC)c1OC (centres undefined) | 54.4%
13 | CCC(C)n1c(NC(=O)c2ccccc2)c(C#N)c2nc3ccccc3nc21 (centres undefined) | 56.6%
14 | O=c1[nH]c2ccccc2nc1/C=C/c1ccccc1 | 121%
15 | CCOC(=O)c1sc2c(c1C)C(c1cccs1)C1=C(CCCC1=O)N2 (centres undefined) | 134%
16 | Cc1c(Cc2ccccc2)c(=O)oc2cc(O)cc(O)c12 | 73.8%
17 | CCOC(=O)c1c(N2C(=O)C=CC2=O)sc(C)c1C | 61.3%
18 | Cc1ccc(C2C3CN(C(C)C)CC=C3C(C#N)=C(N)C2(C#N)C#N)cc1 (centres undefined) | 131%
19 | NS(=O)(=O)c1ccc(N/N=C/c2ccc(O)c(O)c2O)c([N+](=O)[O-])c1 | 57%
20 | COc1ccccc1N(CC(=O)N/N=C/c1c(O)ccc2ccccc12)S(C)(=O)=O | 87.1%
21 | CCCOc1c(Br)cc(C2C3=C(CCCC3=O)N(C)C3=C2C(=O)CCC3)cc1OC | 171%
22 | Cc1cc(C)c2c3c(sc2n1)C(c1cccc(F)c1)C(C#N)=C(N)O3 (centres undefined) | 72.9%
23 | Cc1c(C#N)c(=O)oc2ccc3ccccc3c12 | 60.9%
24 | COc1ccccc1C1CN(c2ccccc2)N=C1c1cccs1 (centres undefined) | 91.4%
25 | N#Cc1c2ccccc2nc2ccccc12 | 111%
26 | CCCc1cc(=O)oc2c(CN3CCOCC3)c(O)ccc12 | 86.1%
27 | Cc1c(CCC(=O)O)c(=O)oc2cc(O)ccc12 | 80.1%

Row | Structure (SMILES) | inhibition
28 | CCCOc1ccc(C2C(C(=O)OC)=CN(CCOC)C=C2C(=O)OC)cc1 | 151%
29 | O=S(=O)(Nc1nc2ccccc2nc1N1CCN(c2ccccn2)CC1)c1ccc(Cl)cc1 | 110%
30 | CCn1c(O)c(C=Nc2ccccc2)sc1=S | 74.1%
31 | Cc1cccn2c(=O)c(/C=C(\C#N)C(=O)NC3CCS(=O)(=O)C3)c(N3CCC(C(N)=O)CC3)nc12 (centres undefined) | 127%
32 | N#C/C(=C\c1ccc(N2CCOCC2)o1)C(=O)NCCc1ccccc1 | 94.6%
33 | CC(C)(C)C(=O)Nc1nc2c(s1)CN(Cc1ccccc1)CC2 | 102%
34 | CC(C)OCCCn1c(-c2ccco2)nc2nc3ccccc3nc21 | 81.6%
35 | Cc1ccc(S(=O)(=O)N[C@H](C(=O)Oc2ccc3c(C(F)(F)F)cc(=O)oc3c2)c2ccccc2)cc1 | 72.9%
36 | COc1ccc(-n2c(N)c(C(=O)NCC3CCCO3)c3nc4ccccc4nc32)c(OC)c1 (centres undefined) | 122%
37 | Cc1ncc(CO)c(/C=N/NC(=O)c2cc(O)c(O)c(O)c2)c1O | 55.3%
38 | CCC(=O)Oc1ccc2c(C)c(Cl)c(=O)oc2c1 | 131%
39 | Cc1ccccc1NC(=S)C1=C(O)c2sccc2N(C)S1(=O)=O | 58.8%
40 | CN1CCc2c(sc(/N=C/c3ccco3)c2C(N)=O)C1 | 106%
41 | NC(=S)c1cc2ccc(O)cc2oc1=O | 72.9%
42 | CCCCNC(=O)CN1C(=O)c2cccc(N)c2C1=O | 70.6%
43 | C(=C/c1nccc2c1[nH]c1ccccc12)/c1ccc2c(c1)OCO2 | 69.3%
44 | CCC(C)(C)n1nnnc1C(c1cc2cc3c(cc2[nH]c1=O)OCO3)N1CCN(C)CC1 (centres undefined) | 75.9%
45 | COc1ccc(OC)c(NC(=O)c2cc3oc4ccccc4c3cc2O)c1 | 51.8%
46 | CCOC(=O)c1cc2c(=O)n3ccccc3nc2n(Cc2ccccc2)c1=N | 71.5%
47 | Cc1c(Br)c(=O)oc2c(C)c(O)ccc12 | 70%
48 | COc1ccc(C2=CC(c3c(C)nn(-c4ccccc4)c3Cl)n3nnnc3N2)cc1OC (centres undefined) | 86.1%
49 | O=[N+]([O-])c1ccc2c(c1)N([O-])C1(CCCCC1)[N+]2=O | 74.6%
50 | Nc1cccc2c1C(=O)N(C(=O)/C=C/c1cccc(F)c1)C2=O | 70.6%
51 | Nc1nnc(-c2cc3c(ccc4ccccc43)oc2=O)s1 | 70.6%
52 | N=c1c(C(=O)NCc2ccc(F)cc2)cc2c(=O)n3ccccc3nc2n1CCCN1CCOCC1 | 72.9%
53 | Cc1cc(C)c2c(=O)n(CC(=O)N3CCC(N4CCCCC4)CC3)sc2n1 | 54.3%
54 | CCCCCCCCOc1ccc(C2OC34CCCCC3C(C#N)(C#N)C2(C#N)C(=N)O4)cc1 (centres undefined) | 63.5%
